Assay results from PubChem BioAssay AID1508624 (National Center for Advancing Translational Sciences (NCATS), 2021).
The campaign covered roughly 48,000 compounds. About 120 (0.25%) were called active. About 4% were inconclusive and are not listed. Calls follow the shape of the dose curve; as a rule, active = well fitted activation curve with a large enough effect; inconclusive = small, poorly fitted or top-dose-only effect, or another doubt; inactive = no such curve, though single readings can be large or run the other way. The list shows a part of the results.

assay: Primary qHTS for Identification of Small Molecule Activators of Huntingtin-Antisense Promoter Activity; conditions: HEK293 HTT-AS promoter firefly luciferase reporter, 24 h; series mostly up to 57.5 µM; activity change, positive = activation: at the top concentration; also: nearly all actives have a fitted effect of over 55% in size
In short: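 HEK293 Fluc reporter, 2,500 cells/well, 24 h pre-culture; cpds up to 57.5 uM final, 24 h 37 degrees C; Dual-Glo, 10 min RT; normalized vehicle = 0%, zero RLU = -100%.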

Activity change, positive = activation, inactive:
CCc1ccc(-c2nc3cc(NC(=O)c4cc5ccccc5cc4OC)ccc3o2)cc1 -7.18%
COc1ccc(Br)c(C(=O)Nc2cc3c(cc2N2CCCCC2)n(C)c(=O)c(=O)n3C)c1 -20.6%
CCc1cc(C(=O)NC(C)c2ccccc2)no1 (centres undefined) 4.04% [at 11.5 µM, percent change from vehicle, -100% = no light]
COc1cc2c(cc1OC)C(COc1ccc(F)cc1)N(C(=O)c1ccc(S(=O)(=O)N3CCCC3)cc1)CC2 (centres undefined) -12.4%
COc1cc(C2CC(=O)N(Cc3ccc(F)cc3)c3ccccc3S2)cc(OC)c1OC (centres undefined) -62.1%
O=C(CCCn1c(=O)c2ccccc2n(Cc2ccc(F)cc2Cl)c1=O)NCCc1ccc(Cl)cc1 -10.1%
COC(=O)c1ccccc1NC(=O)c1nc(S(=O)(=O)Cc2cccc(C)c2)ncc1Cl 0.0775%
Cc1cccc(NC(=O)c2c(C)cc(C)nc2SCC(=O)Nc2c(C)cc(C)cc2C)c1 -18%
CC(=O)Nc1ccc(NC(=O)c2ccc(COc3ccc(Cl)cc3Cl)o2)cc1 6.78%
CCOc1ccc(-c2cc(-c3nc(-c4cc(OC)c(OC)c(OC)c4)no3)[nH]n2)cc1Cl -3.63%
Cc1ccc(-n2nc(CO)c(C(=O)NCc3cccs3)n2)cc1C -0.941%
Cn1c(=O)oc2cc(S(=O)(=O)N3CCC(C(=O)NCc4ccc(F)cc4)CC3)ccc21 -16.2%
CCOC(=O)C1=C(C)NC(C)=C(C(=O)OC)C1c1cccc(Cl)c1Cl (centres undefined) -17.8%
COc1ccc(Nc2nc3cc(Cl)c(Cl)cc3n3cnnc23)cc1Cl -2.38%
O=C(Nc1nnc(S(=O)(=O)N2CCCC2)s1)c1ccccc1Br -13%
Cc1ccccc1Cn1nnc2c(=O)[nH]c(C3CCCN(C(=O)c4ccc(F)cc4)C3)nc21 (centres undefined) -14.7%
CCOC(=O)c1ccc(NC(=O)CSc2nnc(CNC(=O)c3ccc(OC)cc3)n2CC)cc1 0.179%
COc1ccc(NC(=O)CC2C(=O)N(c3ccc(C)cc3)C(=O)N2Cc2ccc3c(c2)OCO3)cc1 (centres undefined) -18.8%
CCC(C)n1c(SCc2c(F)cccc2Cl)nc2ccsc2c1=O (centres undefined) -28.6%
COc1ccc(N2CCN(S(=O)(=O)c3ccc4c(c3)CCCN4C(C)=O)CC2)cc1 -20.8%
CC1CCN(CCCNC(=O)c2cn(C)c3ccc(S(=O)(=O)N(C)C4CCCCC4)cc3c2=O)CC1 2.25%
COc1cc(N2C(=O)CSC23C(=O)N(Cc2ccc(C)cc2)c2ccccc23)cc(OC)c1OC (centres undefined) -22%
Cc1ccc2c(c1)N(C(=O)CCC(=O)NCc1cccs1)CCO2 1.51%
Cc1ccc(C)c(CN2C(=O)c3ccccc3S(=O)c3ccc(C(=O)N4CCN(c5ccccc5F)CC4)cc32)c1 (centres undefined) -21.2%
C=C1C(=O)[C@@]23C(CC[C@@H]1[C@H]2O)[C@@]12CO[C@]3(O)[C@@H](O)[C@@H]1C(C)(C)CC[C@@H]2O (some centres undefined) -93.3%
CC(C)(C)OC(=O)N1CCC(c2c(C(=O)NCCCN3CCc4ccccc4C3)cnn2-c2ccccc2)CC1 -11.4%
Cc1ccc(N2CC(NC(=O)c3ccc(S(=O)(=O)N4CCCC4)cc3)CC2=O)cc1 (centres undefined) -16.9%
COc1ccc(-c2c(C)c3cc(OC(=O)N4CCOCC4)ccc3oc2=O)cc1 -19.8%
CCOc1ccccc1NC(=O)Cn1c(=O)n(CCCC(=O)NCCc2ccc(C)cc2)c(=O)c2ccccc21 -12%
O=C(Nc1ccc2c(c1)CCCN2C(=O)c1cccs1)c1c(F)cccc1F -37.4%
C[C@H](CCC(=O)O)[C@H]1CC[C@H]2[C@@H]3C(=O)C[C@@H]4CC(=O)CC[C@]4(C)[C@H]3CC(=O)[C@]12C -5.26%
O=C(Cn1cc(SCc2ccccc2)c2ccccc21)N1CCCCC1 17.6%
COc1ccc(-c2nc(C)c(CCNC(=O)C(=O)Nc3c(C)cccc3C)s2)cc1OC 1.08%
CCc1ccc(CNC(=O)CN(c2ccc(C)cc2)S(=O)(=O)N(C)C)cc1 -29.3%
COc1ccc(OC)c(CCNC(=O)C2CCN(c3ncnc4c3nc3n4CCCCC3)CC2)c1 -8.33%
CSc1ccc(CNC(=O)C2CCN(c3nnc(-n4cccc4CNc4ccc(C)cc4)s3)CC2)cc1 -36.2%
N#Cc1c(-n2ncnc2-c2ccc(Br)cc2)sc2c1CCCCC2 -17.2%
Cc1cc(C)cc(NC(=O)CCCN2C(=O)COc3ccc(C)cc32)c1 -23.5%
Nc1cc(=O)nc(SCC(=O)Nc2ccc(F)cc2)n1-c1ccccc1Cl -4.38% [at 11.5 µM, percent change from vehicle, -100% = no light]
COc1ccc(C)cc1NC(=O)C1CCN(S(=O)(=O)c2ccc3[nH]c4c(c3c2)CCCCC4)CC1 -8.36%
O=C(COc1ccc([N+](=O)[O-])cc1)NCC1(N2CCOCC2)CCCCC1 -12%
Oc1c(C(c2ccccc2F)N2CCCCC2)sc2nc(-c3ccco3)nn12 (centres undefined) -7.37%
CC(=O)c1cccc(NC(=O)CSc2nc(=O)n(Cc3cccnc3)c3c2CCC3)c1 -3.15%
Cc1ccc(NC(=O)c2cn3c4c(ccc(Cl)c4c2=O)OC(C)C3)c(C)c1 (centres undefined) -7.04%
CC(C)CC(=O)Nc1ccc(S(=O)(=O)Nc2cc3c(cc2N2CCOCC2)n(C)c(=O)c(=O)n3C)cc1 -16.1%
O=C(CCc1cn(Cc2ccccc2Cl)c2ccccc12)NC1CCCCC1 -25.6%
Cc1c(C(=O)N2CCC(C)CC2)c(S(=O)(=O)NCc2ccc(Br)cc2)c(C)n1C -11.9%
CC(C)c1ccc(NC(=O)C2CCN(c3nc(-c4ccc(C(C)C)cc4)no3)CC2)cc1 -93.7%
CCCCc1nc2ccccc2n2c(-c3ccc(OC)cc3)c3c(=O)n(C)c(=O)n(C)c3c12 -2.61%
Cc1ccccc1Nc1c(-c2ccc(Cl)s2)nc2c(C)cccn12 29.1%
Cc1nc2sccn2c(=O)c1CCN1CCC(=C(c2ccc(F)cc2)c2ccc(F)cc2)CC1 -10.9%
COc1ccc(-n2ncc(C(=O)N3CCN(c4ncccn4)CC3)c2C2CCN(C(=O)OC(C)(C)C)CC2)cc1 1.71%
Cc1ccc(C)c(NC(=O)CCc2nc3cccnc3n2Cc2cccs2)c1 -18.1%
CCN(CC)C(=O)CSc1nc(-c2ccccc2)cc(-c2ccc(OC)cc2)c1C#N -3.86%
COc1cccc(NC(=O)Cn2c(=O)n(-c3ccccc3)c(=O)c3c4c(sc32)CCCC4)c1 -5.29%
Cc1ccccc1-c1ccnc2c(-c3ccc(F)cc3)c(C)nn12 -40.7%
Cc1ccc(-c2cc(N)n(Cc3cccc(Cl)c3)n2)cc1 -16.4%
COc1ccccc1-c1noc(-c2ccc(NCc3ccccc3)c([N+](=O)[O-])c2)n1 -9.2%
Cc1cc2nc(NC(=O)c3ccc(S(=O)(=O)N4CCOCC4)cc3)sc2cc1C -6.97%
COc1ccc(C)cc1NC(=O)CN(C)S(=O)(=O)c1ccc2c(c1)CCCN2C(C)=O -5.22%
COCCCN1CN=C(NS(=O)(=O)c2ccc(NC(C)=O)cc2)NC1 -11.4%
CCOC(=O)c1sc2ccccc2c1S(=O)(=O)N1CCN(c2ccccc2F)CC1 -27.8%
COc1ccc(N2Cc3cccc(C(=O)Nc4ccc(C)cc4)c3C2=O)cc1 -8.55%
COc1cc(OC)c(NC(=O)Cn2nc(C)n3cccc3c2=O)cc1Cl -0.53%
CCC(=O)N1CCc2cc(S(=O)(=O)N3CCN(c4ccccc4F)CC3)ccc21 -1.43%
CC1=C(c2cccc(Cl)c2)S(=O)(=O)NC1=NCc1ccccc1C -16.9%
COc1ccc(C)cc1NC(=O)CN1C(=O)CSc2ccc(S(=O)(=O)N3CCCC3)cc21 -21.3%
CCN(CC)S(=O)(=O)c1ccc2c(c1)c(=O)c(C(=O)NCCc1ccc(OC)c(OC)c1)cn2C 7.1%
COc1cccc(CN(C(=O)c2oc3ccc(Br)cc3c2C)C2CCS(=O)(=O)C2)c1 (centres undefined) -37.9%
COC(=O)CNC(c1ccccc1)c1cc(Br)ccc1NC(=O)c1ccc(Cl)cc1 (centres undefined) -16.4%
Cc1nc2ccn(Cc3ccccc3)c(=O)c2cc1C(=O)Nc1ccc(F)cc1Cl 0.609%
CCC(=O)N1CCc2cc(Br)cc(S(=O)(=O)NCc3cccc(OC)c3)c21 -11.4%
CCOC(=O)c1ccccc1NC(=O)c1c(-c2ccccc2)noc1C -30.3%
CCOC(=O)c1c(NC(=O)CSc2cn(CCNC(=O)c3ccc(OC)c(OC)c3)c3ccccc23)sc2c1CCC2 -26%
Cc1cn2c(=O)cc(COC(=O)c3cccc(NC(=O)COc4ccccc4)c3)nc2s1 -27.7%
Cc1cccc(N2CCN(c3nc4ccc(C(=O)c5ccccc5)cc4n4cnnc34)CC2C)c1 (centres undefined) -3.46%
CC(C)Oc1ccc(CNC(=O)c2ccc(CS(=O)Cc3ccccc3Cl)o2)cc1 (centres undefined) -30.5%
O=C1c2c(O)ccc(O)c2C(=O)c2c(NCCNCCO)ccc(NCCNCCO)c21
COc1ccc(OC)c(NC(=O)c2oc3c(c2C)-c2nn(Cc4ccc(Cl)cc4)cc2CC3)c1 -11.3%
Cc1ccc2c(CC(=O)N3CCN(c4cccc(Cl)c4)CC3)coc2c1C -13.8%
CC(=O)Nc1ccc(NC(=O)Cn2cc3c(n2)CCCCC3)cc1 2.24%
Cc1cccc(OCCSc2nc3ccc(NC(=O)COc4ccccc4C)cc3s2)c1 -5.75%
CC(=O)N1CCc2c(sc3c2c(=O)n(Cc2ccccc2)c(=O)n3Cc2cccc(Cl)c2)C1 -48.3%
COc1cc(-c2noc(-c3ccc(N4CCCC4)c([N+](=O)[O-])c3)n2)cc(OC)c1OC -6.29%
CCC(=O)N1CCc2cc(CNC(=O)Cc3ccc(OC)c(OC)c3)ccc21 -17.5%
Cc1ccccc1Cn1cnc2c(oc3ccccc32)c1=O 12.5%
COc1cc(C(=O)N2CCc3c([nH]c4ccccc34)C2c2ccc(F)cc2)cc(OC)c1OC (centres undefined) -32.4%
CC1=Nc2cc(C(=O)NC3CCC(C)CC3)ccc2Sc2c(C)ccc(C)c21 (centres undefined) 5.71%
COc1ccc(NC(=O)c2ccc3c(c2)N(Cc2cccc(Cl)c2)C(=O)c2ccccc2S3(=O)=O)cc1Cl -15.7%
